Assay results published in the antibiotic and cytotoxicity screens of Wong et al. (2023).
Some of the results follow.

The molecules below were run on HepG2 (assay: cytotoxicity call (relative viability < 0.9)). Details: 10 µM.

SMILES | cytotoxicity call
C[C@@H]1CN([C@@H](C)CO)C(=O)c2cc(NC(=O)c3ccncc3)ccc2O[C@@H](C)CCCCO[C@@H]1CN(C)C(=O)NC1CCCCC1 | active
COC(=O)C[C@H]1CC[C@@H]2[C@H](COC[C@H](O)CN2S(=O)(=O)c2ccc(F)cc2)O1 | inactive
CCO/N=[N+](\[O-])N1CCCC1 | inactive
CO[C@@H]1CN(C)C(=O)c2ccc(NS(=O)(=O)c3cn(C)cn3)cc2OC[C@@H](C)N(CCC(F)(F)F)C[C@@H]1C | inactive
CC(=O)N[C@@H](C=O)[C@@H](O)[C@H](O)[C@H](O)CO | inactive
C[C@@H](Nc1nc(=O)cc(F)[nH]1)C(=O)O | inactive
C[C@H](CO)N1C[C@H](C)[C@@H](CN(C)S(=O)(=O)c2ccc3c(c2)OCCCO3)OCc2cnnn2CCCC1=O | inactive
CC(C)(C)[S@@](=O)N1Cc2cc(C(=O)NC3CCC3)nc(-c3cccc(-c4ccccc4F)c3)c2[C@H]1CCO | inactive
C[C@]1(C(=O)NCc2ccccc2)c2ccccc2C(=O)N(Cc2ccc(OC(F)(F)F)cc2)[C@H]1c1ccc(CO)cc1 | inactive
O=C(C[C@H]1CC[C@H](NC(=O)c2ccc(F)cc2)[C@H](CO)O1)NCc1ccncn1 | inactive
CN(C)CCN(Cc1ccccc1)c1ccccn1.O=C(O)CC(O)(CC(=O)O)C(=O)O | active
Cc1ccc(S(=O)(=O)Nc2ccc3c(c2)CC(=O)N([C@@H](C)CO)C[C@@H](C)[C@H](CN(C)Cc2ccncc2)O3)cc1 | inactive
C[C@H](CO)N1C[C@H](C)[C@@H](CN(C)S(=O)(=O)c2cn(C)cn2)Oc2ccc(NS(=O)(=O)c3ccccc3)cc2C1=O | inactive
C[C@@H]1CCCCO[C@@H](CN(C)S(=O)(=O)c2cccs2)[C@H](C)CN([C@@H](C)CO)C(=O)c2cc(NC(=O)Cc3ccccc3)ccc2O1 | inactive
C[C@@H]1CN([C@H](C)CO)C(=O)c2cccc(NS(=O)(=O)c3ccc(Cl)cc3)c2O[C@H]1CN(C)C(=O)Nc1ccc(C(F)(F)F)cc1 | inactive
Cc1ccc(S(=O)(=O)NCCOc2nc(N(C)C)nc(N3CCOCC3)n2)cc1 | inactive
C[C@H]1CN([C@@H](C)CO)S(=O)(=O)c2ccc(C#CC3(O)CCCC3)cc2O[C@H]1CN(C)C(=O)Cc1ccccc1 | inactive
C[C@@H]1CN([C@H](C)CO)C(=O)c2cc(NC(=O)c3ccccc3)ccc2O[C@@H](C)CCCCO[C@H]1CN(C)S(=O)(=O)c1ccc(F)cc1 | active
C[C@@H]1CN([C@@H](C)CO)C(=O)c2cc(NS(=O)(=O)c3cccs3)ccc2O[C@@H](C)CCCCO[C@H]1CN(C)C(=O)c1ccccc1 | inactive
C[C@@H]1CN([C@H](C)CO)C(=O)c2cc(N(C)C)ccc2O[C@@H](C)CCCCO[C@H]1CN(C)S(=O)(=O)c1cn(C)cn1 | inactive

SMILES | cytotoxicity call
COc1ccc(CN(C)C[C@@H]2OCCCC[C@@H](C)Oc3ccc(NC(=O)Nc4ccc(C(F)(F)F)cc4)cc3C(=O)N([C@H](C)CO)C[C@H]2C)cc1 | active
CCCCCCCCCCCCCCCCCC(=O)OC[C@@H](COP(=O)(O)OCC[N+](C)(C)C)OC(=O)CCCCCCCCCCCCCCCCC | inactive
Cn1c(=O)c2c(ncn2CC2OCCO2)n(C)c1=O | inactive
N#C[C@H](c1ccccn1)N1CCOCC1 | inactive
O=C(C[C@H]1C[C@@H]2c3cc(NC(=O)NC4CCCC4)ccc3O[C@@H]2[C@H](CO)O1)NCc1ccc2c(c1)OCO2 | inactive
C[C@H]1CN([C@@H](C)CO)C(=O)c2cc(/C=C/c3ccccc3)cnc2O[C@@H]1CN(C)S(=O)(=O)c1cn(C)cn1 | inactive
Fc1ccccc1[C@H]1Nc2ccc3ccccc3c2[C@H]2C=CC[C@@H]21 | inactive
CC(C)NC(=O)N(C)C[C@H]1Oc2ccc(NC(=O)NC3CCCCC3)cc2C(=O)N([C@H](C)CO)C[C@@H]1C | inactive
Cc1noc(C)c1NC(=O)N(C)C[C@H]1Oc2ccc(NS(=O)(=O)c3ccccc3)cc2C(=O)N([C@@H](C)CO)C[C@@H]1C | inactive
Cc1noc(C)c1S(=O)(=O)Nc1ccc2c(c1)C(=O)N([C@@H](C)CO)C[C@@H](C)[C@H](CN(C)S(C)(=O)=O)OCCCC[C@@H](C)O2 | inactive
O=C1OCCC/C=C\[C@H]2O[C@@]34C=CCN(c5ccc6ccccc6c5)C(=O)[C@H]3N(CCCCCO)C(=O)[C@@H]4[C@@H]12 | inactive
O=C(NCCO)c1cc2ccccc2c(=O)s1 | inactive
COc1ccccc1NC(=O)N(C)C[C@H]1Oc2cc(Br)ccc2S(=O)(=O)N([C@@H](C)CO)C[C@@H]1C | inactive
C[C@H]1CN([C@@H](C)CO)C(=O)c2cccc(NC(=O)Nc3cccc4ccccc34)c2O[C@@H]1CN(C)C(=O)Nc1ccccc1 | inactive
Cc1ccc(S(=O)(=O)Nc2ccc3c(c2)C(=O)N([C@H](C)CO)C[C@@H](C)[C@H](CN(C)Cc2ccc(-c4ccccc4)cc2)O3)cc1 | inactive
C[C@H](CO)N1C[C@H](C)[C@@H](CN(C)C(=O)Nc2ccc(C(F)(F)F)cc2)OCCCC[C@H](C)Oc2ccc(N(C)C)cc2C1=O | inactive
CCCN(C)C[C@H]1OCCCC[C@@H](C)Oc2ccc(NS(C)(=O)=O)cc2C(=O)N([C@H](C)CO)C[C@@H]1C | inactive
CC(C)=C[C@H]1[C@@H](c2nc3cc(Br)ccc3o2)C1(C)C | inactive
CC(C)NC(=O)N(C)C[C@H]1Oc2c(NS(=O)(=O)c3cccs3)cccc2C(=O)N([C@@H](C)CO)C[C@H]1C | inactive
CCCC#Cc1ccc2c(c1)O[C@@H](CN(C)Cc1ccc3c(c1)OCO3)[C@H](C)CN([C@@H](C)CO)S2(=O)=O | inactive
